One assay deals with HSkMC. As to the kind of experiment: cytotoxicity call (relative viability < 0.9). The following applies: 10 µM.
The next assay deals with HepG2. As to the kind of experiment: cytotoxicity call (relative viability < 0.9). The following applies: 10 µM.
Another assay relates to S. aureus RN4220. As to the kind of experiment: growth inhibition call (relative growth <= 0.2). To be noted: 50 µM.

The results in this text go back to the antibiotic and cytotoxicity screens of Wong et al. (2023).

Molecules are shown by their SMILES. The list shows a part of the results.

Take `Cc1noc(C)c1NC(=O)Nc1ccc2c(c1)C(=O)N([C@@H](C)CO)C[C@H](C)[C@H](CN(C)C(=O)Nc1ccc(C(F)(F)F)cc1)O2`: the cytotoxicity call in the assay with HSkMC and in the assay with HepG2 was “inactive” in each case. Moreover, the growth inhibition call in the assay with S. aureus RN4220 was “active”.
`C[C@@H]1CN([C@@H](C)CO)C(=O)c2cc(NC(=O)CCC(F)(F)F)ccc2O[C@H]1CN(C)C(=O)Nc1cccc2ccccc12`: the cytotoxicity call in the assay on HSkMC (human skeletal muscle cells) and with HepG2 was “inactive” in each case. Also, the growth inhibition call with S. aureus RN4220 was “inactive”.
As to `Cc1ccc(S(=O)(=O)N(C)C[C@H]2Oc3ccc(NS(=O)(=O)c4c(C)noc4C)cc3CC(=O)N([C@H](C)CO)C[C@@H]2C)cc1`, the cytotoxicity call in the assay with HSkMC and with HepG2 was “inactive” throughout. In the assay on S. aureus RN4220, the growth inhibition call is “inactive”.
As for `Cc1noc(C)c1NC(=O)Nc1ccc2c(c1)CC(=O)N([C@@H](C)CO)C[C@H](C)[C@H](CN(C)CC1CC1)O2`, the cytotoxicity call with HSkMC and in the assay with HepG2 was “inactive” each time. In the assay on S. aureus RN4220, the growth inhibition call is “inactive”.
As for `C[C@@H]1CN([C@H](C)CO)C(=O)c2cc(NS(=O)(=O)c3ccc(F)cc3)ccc2O[C@@H]1CN(C)Cc1ccc(-c2ccccc2)cc1`, the cytotoxicity call with HSkMC and in the assay with HepG2 was “active” throughout. The growth inhibition call in the assay with S. aureus RN4220 is “inactive”.
